{
  "source": "PubChem BioAssay AID485294",
  "about": "(National Center for Advancing Translational Sciences (NCATS), 2010)",
  "note": "Out of some 370,000 compounds screened, about 150 (0.041%) were called active. Inconclusive results, whose numbers are uncertain, are shown with a selection of clear calls. The call rests on the fitted dose curve; in most records, active means well fitted inhibition curve with a large enough effect; inconclusive means small, poorly fitted or top-dose-only effect; inactive means flat fitted curve, though single readings scatter. Potencies of inconclusive entries are left out as doubtful fits. Potency means the concentration at half of the fitted maximal effect; tags describe the fitted curve by direction and shape.",
  "data": [
    {"biological_target": "Beta-lactamase (Escherichia coli (strain K12)) (UniProt P00811)", "sequence (P00811 whole entry, looked up)": "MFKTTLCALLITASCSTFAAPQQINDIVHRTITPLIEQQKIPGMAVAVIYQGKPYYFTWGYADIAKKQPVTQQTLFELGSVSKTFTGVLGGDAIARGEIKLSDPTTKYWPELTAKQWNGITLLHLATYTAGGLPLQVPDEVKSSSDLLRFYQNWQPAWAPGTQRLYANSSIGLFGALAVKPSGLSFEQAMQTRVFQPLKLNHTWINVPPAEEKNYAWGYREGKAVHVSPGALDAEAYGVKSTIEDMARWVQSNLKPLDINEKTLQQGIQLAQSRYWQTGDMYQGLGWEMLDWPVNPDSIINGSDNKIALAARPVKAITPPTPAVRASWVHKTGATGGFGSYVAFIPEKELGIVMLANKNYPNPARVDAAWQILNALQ", "assay": "qHTS Inhibitors of AmpC Beta-Lactamase (assay with detergent); further: nearly all actives have a fitted effect of over 25% in size;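 on activity change, negative = inhibition: 0% = no-compound wells and -100% = no-enzyme wells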", "settings": "AmpC hydrolysis of nitrocefin, absorbance 480 nm, 0.01% Triton; activity change, negative = inhibition: at 114 µM (top of the series)", "procedure,_shortened": "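AmpC (5.3 nM in the dispensed reagent) in 20 mM phosphate pH 7.0 with 0.01% (detergent screen) or 0.0001% Triton X-100 was preincubated with compounds for 15 min at room temperature. Nitrocefin was then added from an 800 uM solution, and hydrolysis was followed at 480 nm.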", "values": [
      {"smiles": "Cc1nn(C)cc1-c1n[nH]c(=S)n1-c1ccc(Cl)cc1", "activity change, negative = inhibition": "inactive: -4.44%"},
      {"smiles": "O=C(Cn1cc(S(=O)(=O)Cc2ccc([N+](=O)[O-])cc2)c2ccccc21)N1CCOCC1", "Potency": "inconclusive [inhibitor, partial curve]"},
      {"smiles": "Cc1nc(NC(=O)c2ccccc2)sc1-c1csc(NCc2ccccc2)n1", "activity change, negative = inhibition": "inactive: 0.655%"},
      {"smiles": "O=C(CCCOc1ccc(Cl)cc1)Nc1nncs1", "Potency": "inconclusive [inhibitor, full curve, poor fit]"},
      {"smiles": "CCOC(=O)c1c(N2C(=O)C3CC(C)=C(C)CC3C2=O)sc(C)c1C", "note": "(stereo unspecified)", "Potency": "inconclusive [inhibitor, full curve]"},
      {"smiles": "CCOc1cc(N2CCOCC2)c(OCC)cc1NC(=O)CN1C(=O)NC2(CCCCC2C)C1=O", "note": "(stereo unspecified)", "Potency": "inconclusive [inhibitor, full curve, poor fit]"},
      {"smiles": "CCOC(=O)c1ccc(-n2[nH]c(-c3ccccc3)cc2=O)cc1", "Potency": "inconclusive [inhibitor, full curve, poor fit]"},
      {"smiles": "Clc1ccc(-c2nn3c(-c4ccncc4)nnc3s2)c(Cl)c1", "Potency": "inconclusive [inhibitor, full curve, poor fit]"},
      {"smiles": "CCCS(=O)(=O)N1CCCC(C(=O)NCCc2cccc(C)c2)C1", "note": "(stereo unspecified)", "activity change, negative = inhibition": "inactive: 1.2%"},
      {"smiles": "CCCC(=O)Nc1ccc2oc(-c3ccncc3)nc2c1", "Potency": "inconclusive [inhibitor, full curve, poor fit]"},
      {"smiles": "O=C(NC1(C(F)(F)F)C(=O)Nc2c1c(=O)[nH]c(=O)n2Cc1ccco1)C1CC1", "note": "(stereo unspecified)", "Potency": "inconclusive [inhibitor, single point]"},
      {"smiles": "CCN(CC)C(=O)CSc1nc2[nH]ncc2c(=O)[nH]1", "Potency": "inconclusive [inhibitor, full curve]"},
      {"smiles": "CCC(c1nnnn1CCOC)N1CCN(Cc2ccccc2OC)CC1", "note": "(stereo unspecified)", "Potency": "inconclusive [inhibitor, full curve, poor fit]"},
      {"smiles": "Cc1ccc(C(C)C)c(OCC(=O)Nc2ccc(Cl)cn2)c1", "activity change, negative = inhibition": "inactive: -7.11%"},
      {"smiles": "CN(Cc1ccccc1Cl)C(=O)C1CCC(=O)N(CCc2cccc(F)c2)C1", "note": "(stereo unspecified)", "Potency": "inconclusive [inhibitor, full curve, poor fit]"},
      {"smiles": "NS(=O)(=O)c1ccc(N2CCN(CCOc3ccc(Cl)cc3)CC2)nc1", "activity change, negative = inhibition": "inactive: -1.65%"},
      {"smiles": "CCc1ccc(N2C(=O)CN(Cc3cc(OC)c(OC)c(OC)c3)C2=S)cc1", "Potency": "inconclusive [inhibitor, full curve, poor fit]"},
      {"smiles": "O=C(COC(=O)c1ccc(-c2ccccc2)cc1)Nc1ccccc1-c1ccccc1", "Potency": "inconclusive [inhibitor, full curve]"},
      {"smiles": "CCN(CC)c1nc(N)nc(NS(=O)(=O)c2ccc(Cl)cc2)n1", "Potency": "inconclusive [inhibitor, full curve, poor fit]"},
      {"smiles": "CCc1nc2c(C#N)c(-c3ccc(Cl)cc3)ccn2n1", "Potency": "inconclusive [inhibitor, single point]"},
      {"smiles": "CCOc1ccc(CNC(=O)C(C)n2nc(C)c3c(C)n(-c4ccccc4)nc3c2=O)cc1", "note": "(stereo unspecified)", "Potency": "inconclusive [inhibitor, full curve, poor fit]"},
      {"smiles": "CN1C(=O)C2(N=c3ccccc3=N2)c2ccccc21", "Potency": "inconclusive [inhibitor, full curve, poor fit]"},
      {"smiles": "CC(C)CN1CCC(=O)N(CCC#N)CC1", "Potency": "inconclusive [inhibitor, full curve, poor fit]"},
      {"smiles": "O=C(COC(=O)c1cccs1)NCc1ccccc1", "Potency": "inconclusive [inhibitor, full curve, poor fit]"},
      {"smiles": "CC(C)(C)NC(=O)C(c1ccccn1)N(C(=O)c1csnn1)C1CCCC1", "note": "(stereo unspecified)", "Potency": "inconclusive [inhibitor, single point]"},
      {"smiles": "CCOC(=O)N1CCN(C(=O)c2ccc3c(c2)NC(=O)/C(=C\\c2ccc(OC)c(OC)c2)S3)CC1", "activity change, negative = inhibition": "inactive: -6.39%"},
      {"smiles": "O=C(COc1ccccc1)NCc1nnc(SCC(=O)Nc2nccs2)n1-c1ccccc1", "Potency": "inconclusive [inhibitor, partial curve]"},
      {"smiles": "Cc1ccc(SCC(=O)NCCN2C(=O)CSC2=O)c(C)c1", "Potency": "inconclusive [inhibitor, partial curve, poor fit]"},
      {"smiles": "O=c1cc(-c2ccccc2)[nH]c2[nH]n(-c3ccccc3)c(=O)c12", "Potency": "inconclusive [inhibitor, full curve, poor fit]"},
      {"smiles": "Cc1ccc(C)c(Cn2nnc3c(=O)[nH]c(C(=O)NCc4ccco4)nc32)c1", "Potency": "inconclusive [inhibitor, partial curve, poor fit]"},
      {"smiles": "COc1cc(Cl)ccc1OCc1cc(C(=O)N2CCCCC2c2cccnc2)no1", "note": "(stereo unspecified)", "Potency": "inconclusive [inhibitor, partial curve, poor fit]"},
      {"smiles": "COc1cccc(-n2c(SCC(=O)OC(C)C)nnc2-c2cccnc2)c1", "Potency": "inconclusive [inhibitor, full curve, poor fit]"},
      {"smiles": "COc1ccc(-c2cc3nc(CCl)[nH]c(=O)c3s2)cc1", "activity change, negative = inhibition": "inactive: 3.71%"},
      {"smiles": "CCCCn1nnc(NC(=O)c2sc3cc(Cl)ccc3c2Cl)n1", "Potency": "inconclusive [inhibitor, full curve, poor fit]"},
      {"smiles": "CCS(=O)(=O)N1CCC(C(=O)O)CC1", "activity change, negative = inhibition": "inactive: 0.119%"},
      {"smiles": "O=C(CCc1nc2sc3c(c2c(=O)[nH]1)CCCC3)N1CCN(c2ccccc2)CC1", "activity change, negative = inhibition": "inactive: -7.72%"},
      {"smiles": "CCOc1ccc2nc(SCC(=O)N(C)C3CCS(=O)(=O)C3)[nH]c2c1", "note": "(stereo unspecified)", "activity change, negative = inhibition": "inactive: 2.07%"},
      {"smiles": "CC(C)C(OC(=O)c1ccco1)C(=O)NC1CCCCC1", "note": "(stereo unspecified)", "Potency": "inconclusive [inhibitor, partial curve, poor fit]"},
      {"smiles": "O=C(O)C1C2CCCCC2=C2CCCCC2C1C(=O)O", "note": "(stereo unspecified)", "Potency": "inconclusive [inhibitor, full curve, poor fit]"},
      {"smiles": "O=C(Nc1ccc(NC(=O)c2cccs2)cc1Cl)c1ccco1", "activity change, negative = inhibition": "inactive: 0.321%"},
      {"smiles": "COc1cc2c(cc1OC)CN(C(=O)CSc1nc3[nH]ncc3c(=O)n1-c1ccccc1)CC2", "Potency": "inconclusive [inhibitor, partial curve, poor fit]"},
      {"smiles": "c1ccc(-c2nc3nc4ccccc4nc3n2Cc2ccco2)cc1", "activity change, negative = inhibition": "inactive: -14.2%"},
      {"smiles": "CCc1ccc2nc(N3C(=O)c4oc5ccccc5c(=O)c4C3c3ccc(OC)c(OC)c3)sc2c1", "note": "(stereo unspecified)", "Potency": "inconclusive [inhibitor, partial curve]"},
      {"smiles": "COc1cccc(C(=O)Nc2ccc3c(c2)C(=O)N(CCC(=O)O)C3=O)c1", "Potency": "inconclusive [inhibitor, full curve]"},
      {"smiles": "CCC(C)n1c(-c2cccs2)nc2nc3ccccc3nc21", "note": "(stereo unspecified)", "Potency": "inconclusive [inhibitor, full curve, poor fit]"},
      {"smiles": "O=C(NCc1cccc(F)c1)C1CCC(=O)N(CCc2cccc(F)c2)C1", "note": "(stereo unspecified)", "activity change, negative = inhibition": "inactive: -0.422%"},
      {"smiles": "Cc1cc(N2CCN(c3nc(-c4ccccc4)cs3)CC2)c2ccccc2n1", "activity change, negative = inhibition": "inactive: 1.2%"},
      {"smiles": "C/C=C/c1ccc2c(c1)OCO2", "activity change, negative = inhibition": "inactive: 5.15%"},
      {"smiles": "COc1ccc(NC(=O)CCS(=O)(=O)c2ccc(Br)s2)cc1", "activity change, negative = inhibition": "inactive: -0.182%"},
      {"smiles": "Cc1cccc(C)c1NC(=O)CN1CCN(C(=O)CNC(=O)c2ccc(N3CCCC3=O)cc2)CC1", "Potency": "inconclusive [inhibitor, full curve]"},
      {"smiles": "O=C(c1ccccc1)c1ccc(OC(=O)N2CCOCC2)cc1", "Potency": "inconclusive [inhibitor, full curve, poor fit]"},
      {"smiles": "O=C(Cn1c(=O)oc2cc(S(=O)(=O)N3CCc4ccccc43)ccc21)NC1CCCC1", "Potency": "inconclusive [inhibitor, full curve, poor fit]"},
      {"smiles": "Cc1nc2ccccn2c1C(=O)N/N=C/c1ccccc1", "activity change, negative = inhibition": "inactive: -5.63%"},
      {"smiles": "NS(=O)(=O)c1ccc(NC(=O)CSC2=NC(=O)C(c3ccccc3)C(=O)N2)cc1", "note": "(stereo unspecified)", "Potency": "inconclusive [inhibitor, full curve, poor fit]"},
      {"smiles": "CCCn1c(O)c(N=Nc2ccc3ccccc3n2)c2ccccc21", "Potency": "inconclusive [inhibitor, full curve, poor fit]"},
      {"smiles": "CCc1nc(N2CCN(C(=O)c3ccccc3)CC2)c2c3c(sc2n1)CCCC3", "activity change, negative = inhibition": "inactive: -5.67%"},
      {"smiles": "CCOC(=O)C1(Cc2ccccc2C)CCCN(Cc2ccc(NC(C)=O)cc2)C1", "note": "(stereo unspecified)", "activity change, negative = inhibition": "inactive: 0.472%"},
      {"smiles": "Cc1cc(-c2ccco2)n(-c2ccccc2)n1", "Potency": "inconclusive [inhibitor, partial curve, poor fit]"},
      {"smiles": "Cc1cccc(NC(=O)CSCC(=O)Nc2ccccc2N2CCCC2)c1", "Potency": "inconclusive [inhibitor, partial curve, poor fit]"},
      {"smiles": "CN1CC=C(c2c[nH]c3ccccc23)CC1", "Potency": "inconclusive [inhibitor, full curve, poor fit]"},
      {"smiles": "COc1ccccc1Nc1nc(N)nc(CSC(=S)N2CCCCC2C)n1", "note": "(stereo unspecified)", "activity change, negative = inhibition": "inactive: -0.91%"},
      {"smiles": "CSc1ccc(CNCC2CCCO2)cc1", "note": "(stereo unspecified)", "activity change, negative = inhibition": "inactive: -10.4%"},
      {"smiles": "CC(C)c1ccc(/C=N/NC(=O)C2CCCC2)cc1", "activity change, negative = inhibition": "inactive: -11.3%"},
      {"smiles": "CCSc1nnc(-c2ccccc2NC(=O)CC)c(=O)[nH]1", "activity change, negative = inhibition": "inactive: -14.7%"},
      {"smiles": "CCOc1ccc(-n2c(C)c(C(C)=O)c(C(C)=O)c2C)cc1", "Potency": "inconclusive [inhibitor, partial curve, poor fit]"},
      {"smiles": "CCCC(=O)Oc1ccc(C2NC(=O)c3ccccc3O2)cc1OC", "note": "(stereo unspecified)", "Potency": "inconclusive [inhibitor, single point]"},
      {"smiles": "COc1ccccc1CC(=O)Nc1ccon1", "Potency": "inconclusive [inhibitor, full curve, poor fit]"},
      {"smiles": "CNC(=O)CSc1nc2nn(-c3ccccc3)c(=O)c-2c2n1CCCCC2", "activity change, negative = inhibition": "inactive: 0.835%"},
      {"smiles": "CSc1nncc(-c2ccc(F)cc2)n1", "activity change, negative = inhibition": "inactive: 5.21%"},
      {"smiles": "COC(=O)c1sccc1NC(=O)Nc1cccc(C)c1C", "activity change, negative = inhibition": "inactive: 1.28%"},
      {"smiles": "COCCCN(Cc1ccco1)C(=O)c1cc2c(s1)-c1ccc(Cl)cc1S(=O)(=O)C2", "Potency": "inconclusive [inhibitor, single point]"}
    ]}
  ]
}
